Among all 330,000 compounds or so, about 4,200 (1.3%) were called active. Inconclusive means that the source gave no clear call. Such entries were picked first, then a sample of the others. Calls follow the shape of the dose curve; as a rule, active = well fitted activation curve with a large enough effect; inconclusive = small, poorly fitted or top-dose-only effect; inactive = no such curve, though single readings can be large or run the other way. Potencies beside an inconclusive call are fits to weak or partial responses and may not hold up.
Assay: qHTS screen for small molecules that induce genotoxicity in human embryonic kidney (HEK293T) cells expressing luciferase-tagged ELG1; also: nearly all actives have a fitted effect of over 60% in size; as to activity change, positive = activation: % of control where 0% means no effect
Settings: HEK293T ELG1-luciferase reporter, luminescence, 16 h; series mostly up to 46 µM; activity change, positive = activation: at the top concentration
How it was run: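 Quantitative HTS format in 1536-well plates. HEK293T ELG1-luciferase reporter cells receive test compound and are incubated 16 hr at 37 °C, 5% CO2; ONE-Glo added, 30 min room temperature, then luminescence read.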
Potency is read from the fitted curve at half-maximal effect; tags tell the direction and shape of the fitted curve.

Question: With `CNC(=O)c1ccc(-c2ccc(F)cc2)s1` as the molecule, how does the Potency read?
Answer: Its Potency is active: 18.4 µM.

Question: With `CC(=O)Nc1ccccc1C(=O)C(=O)Nc1ccc(F)c(Cl)c1` as the molecule, how does the Potency read?
Answer: Its Potency is inconclusive: 18.3 µM [activator, single point].

Question: With `CCOc1ncccc1C(=O)Nc1nc(SC)ns1` as the molecule, how does the Potency read?
Answer: Its Potency is inconclusive: 18.3 µM [activator, partial curve, poor fit].

Question: For `CCOc1cc(/C=C2\SC(=O)N=C2N)ccc1O`, which Potency is on record?
Answer: Its Potency is inconclusive: 18.4 µM [activator, single point].

Question: With `CCOc1ccc(OCC)c(NC(=O)CSc2nc3c(c(=O)n(C)c(=O)n3C)n2C(C)C)c1` as the molecule, how does the “activity change, positive = activation” value read?
Answer: The value was inactive: -8.66%.

Question: For `O=C(Nc1ccc(Cl)cc1)c1ccc(Br)cc1F`, which Potency is on record?
Answer: Its Potency is active: 3.26 µM.

Question: For `COC(=O)C(CC(C)C)NC(=O)c1cc(OC)c(OC)c(OC)c1` (centres undefined), which Potency is on record?
Answer: Its Potency is inconclusive: 15.8 µM [activator, single point].

Question: With `O=C(NNc1nc(-c2ccccc2)cs1)c1ccccc1` as the molecule, how does the “activity change, positive = activation” value read?
Answer: The value was inactive: -0.787%.

Question: For `Clc1ccc(N2CCN(c3cnc4ccccc4n3)CC2)cc1`, which Potency is on record?
Answer: Its Potency is inconclusive: 10 µM [activator, partial curve, poor fit].

Question: Which “activity change, positive = activation” value does the source give for `COc1ccc(CCNC(=O)COC(=O)CSc2ccc([N+](=O)[O-])cc2)cc1OC` here?
Answer: The value was inactive: 1.24%.

Question: Which “activity change, positive = activation” value does the source give for `Cc1cc(C)cc(C(=O)OCC(=O)N2CCCC2)c1` here?
Answer: The value was inactive: 4.63%.

Question: For `Cc1ccc(NC(=O)c2ccc3c(=O)n4c(nc3c2)CCC4)cc1F`, which Potency is on record?
Answer: The Potency was inconclusive: 5.8 µM [activator, partial curve, poor fit].

Question: With `O=C(CN1C(=O)NC2(CCCC2)C1=O)N1CCN(c2ccccc2O)CC1` as the molecule, how does the “activity change, positive = activation” value read?
Answer: The value was inactive: -0.331%.

Question: Which “activity change, positive = activation” value does the source give for `CC(C(=O)N1CCCCC1)N(C)CC(=O)Nc1ccc(Cl)cc1` (centres undefined) here?
Answer: Its value is inactive: -3.03%.

Question: For `CC1=CC(C)C(C[N+]2(C)CCCCC2)C(C)C1` (centres undefined), which “activity change, positive = activation” value is on record?
Answer: The value was inactive: -3.27%.

Question: Which Potency does the source give for `CC(=O)Nc1ccc(N/C=C/C(=O)C(C)(C)C)cc1` here?
Answer: Its Potency is inconclusive: 32.6 µM [activator, partial curve, poor fit].

Question: With `Cc1ccc(NC(=O)CSc2nncc3ccccc23)cc1` as the molecule, how does the “activity change, positive = activation” value read?
Answer: The value was inactive: -0.481%.

Question: With `O=C(NCCc1ccc(Cl)cc1Cl)c1cncc(Br)c1` as the molecule, how does the “activity change, positive = activation” value read?
Answer: The value was inactive: -3.58%.

Question: Which “activity change, positive = activation” value does the source give for `c1ccc(-c2cn(-c3ccccc3)c3[n+]2CCCS3)cc1` here?
Answer: Its value is inactive: -14.6%.

Question: Which Potency does the source give for `CC1=CCC(/C=N\Nc2nnc3c(n2)[nH]c2ccccc23)CC1` (centres undefined) here?
Answer: The Potency was inconclusive: 13 µM [activator, partial curve].

Question: With `CCOC(=O)c1c(C)[nH]c(C(=O)C(C)Cl)c1C` (centres undefined) as the molecule, how does the “activity change, positive = activation” value read?
Answer: The value was inactive: -3.02%.

Question: Which Potency does the source give for `COc1ccc(COc2ccc3ccc(=O)oc3c2)cc1` here?
Answer: Its Potency is inconclusive: 8.2 µM [activator, partial curve].

Question: Which “activity change, positive = activation” value does the source give for `Cc1cccc(N2CCN(C(=O)C3CCN(S(=O)(=O)c4cccc5nsnc45)CC3)CC2C)c1` (centres undefined) here?
Answer: The value was inactive: -8.47%.

Question: For `Cc1ccc2nc(-c3sc4nc(C)cc(C)c4c3N)[nH]c2c1`, which Potency is on record?
Answer: The Potency was inconclusive: 0.411 µM [activator, full curve].
